Test results as given in article PMC4858940.
These are yes or no findings as the source states them, for the method shown. Some results given as binding are weak or reduced against the parent protein; the word gives no strength. Sequences can lack the tags named with a protein.

Sequences of proteins named here, by UniProt entry; tags and fusion partners are left off.
UniProt P0AEZ3: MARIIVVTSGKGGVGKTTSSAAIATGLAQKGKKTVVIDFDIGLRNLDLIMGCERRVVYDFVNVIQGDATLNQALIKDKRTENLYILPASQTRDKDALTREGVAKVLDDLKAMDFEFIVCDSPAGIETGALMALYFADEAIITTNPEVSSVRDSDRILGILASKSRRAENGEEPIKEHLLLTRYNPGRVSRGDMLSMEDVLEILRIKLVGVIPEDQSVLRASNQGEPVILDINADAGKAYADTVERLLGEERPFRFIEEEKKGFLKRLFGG

T1: MinC (bacterial two-hybrid fusion) (E. coli) (UniProt P18196)
T1 sequence: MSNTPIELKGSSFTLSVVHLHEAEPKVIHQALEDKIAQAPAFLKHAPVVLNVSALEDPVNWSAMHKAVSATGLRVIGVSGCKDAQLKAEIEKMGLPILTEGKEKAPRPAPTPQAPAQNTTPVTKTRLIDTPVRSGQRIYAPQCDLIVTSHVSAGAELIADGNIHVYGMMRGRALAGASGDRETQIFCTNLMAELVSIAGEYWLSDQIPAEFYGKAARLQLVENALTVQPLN

B1: Universal stress protein E (bacterial two-hybrid fusion) (protein, UniProt P0AAC0 1-316)
chain: MAMYQNMLVVIDPNQDDQPALRRAVYLHQRIGGKIKAFLPIYDFSYEMTTLLSPDERTAMRQGVISQRTAWIHEQAKYYLNAGVPIEIKVVWHNRPFEAIIQEVISGGHDLVLKMAHQHDRLEAVIFTPTDWHLLRKCPSPVWMVKDQPWPEGGKALVAVNLASEEPYHNALNEKLVKETIELAEQVNHTEVHLVGAYPVTPINIAIELPEFDPSVYNDAIRGQHLLAMKALRQKFGINENMTHVEKGLPEEVIPDLAEHLQAGIVVLGTVGRTGISAAFLGNTAEQVIDHLRCDLLVIKPDQYQTPVELDDEEDD
B2: Ubiquinol oxidase subunit 2 (bacterial two-hybrid fusion) (protein, UniProt P0ABJ1 1-315)
chain: MRLRKYNKSLGWLSLFAGTVLLSGCNSALLDPKGQIGLEQRSLILTAFGLMLIVVIPAILMAVGFAWKYRASNKDAKYSPNWSHSNKVEAVVWTVPILIIIFLAVLTWKTTHALEPSKPLAHDEKPITIEVVSMDWKWFFIYPEQGIATVNEIAFPANTPVYFKVTSNSVMNSFFIPRLGSQIYAMAGMQTRLHLIANEPGTYDGISASYSGPGFSGMKFKAIATPDRAAFDQWVAKAKQSPNTMSDMAAFEKLAAPSEYNQVEYFSNVKPDLFADVINKFMAHGKSMDMTQPEGEHSAHEGMEGMDMSHAESAH
B3: Phosphoglycerate kinase (bacterial two-hybrid fusion) (enzyme, UniProt P0A799 1-387)
chain: MSVIKMTDLDLAGKRVFIRADLNVPVKDGKVTSDARIRASLPTIELALKQGAKVMVTSHLGRPTEGEYNEEFSLLPVVNYLKDKLSNPVRLVKDYLDGVDVAEGELVVLENVRFNKGEKKDDETLSKKYAALCDVFVMDAFGTAHRAQASTHGIGKFADVACAGPLLAAELDALGKALKEPARPMVAIVGGSKVSTKLTVLDSLSKIADQLIVGGGIANTFIAAQGHDVGKSLYEADLVDEAKRLLTTCNIPVPSDVRVATEFSETAPATLKSVNDVKADEQILDIGDASAQELAEILKNAKTILWNGPVGVFEFPNFRKGTEIVANAIADSEAFSIAGGGDTLAAIDLFGIADKISYISTGGGAFLEFVEGKVLPAVAMLEERAKK
B4: Protein lysine acetyltransferase (bacterial two-hybrid fusion) (enzyme, UniProt P76594 1-886)
chain: MSQRGLEALLRPKSIAVIGASMKPNRAGYLMMRNLLAGGFNGPVLPVTPAWKAVLGVLAWPDIASLPFTPDLAVLCTNASRNLALLEELGEKGCKTCIILSAPASQHEDLRACALRHNMRLLGPNSLGLLAPWQGLNASFSPVPIKRGKLAFISQSAAVSNTILDWAQQRKMGFSYFIALGDSLDIDVDELLDYLARDSKTSAILLYLEQLSDARRFVSAARSASRNKPILVIKSGRSPAAQRLLNTTAGMDPAWDAAIQRAGLLRVQDTHELFSAVETLSHMRPLRGDRLMIISNGAAPAALALDALWSRNGKLATLSEETCQKLRDALPEHVAISNPLDLRDDASSEHYIKTLDILLHSQDFDALMVIHSPSAAAPATESAQVLIEAVKHHPRSKYVSLLTNWCGEHSSQEARRLFSEAGLPTYRTPEGTITAFMHMVEYRRNQKQLRETPALPSNLTSNTAEAHLLLQQAIAEGATSLDTHEVQPILQAYGMNTLPTWIASDSTEAVHIAEQIGYPVALKLRSPDIPHKSEVQGVMLYLRTANEVQQAANAIFDRVKMAWPQARVHGLLVQSMANRAGAQELRVVVEHDPVFGPLIMLGEGGVEWRPEDQAVVALPPLNMNLARYLVIQGIKSKKIRARSALRPLDVAGLSQLLVQVSNLIVDCPEIQRLDIHPLLASGSEFTALDVTLDISPFEGDNESRLAVRPYPHQLEEWVELKNGERCLFRPILPEDEPQLQQFISRVTKEDLYYRYFSEINEFTHEDLANMTQIDYDREMAFVAVRRIDQTEEILGVTRAISDPDNIDAEFAVLVRSDLKGLGLGRRLMEKLITYTRDHGLQRLNGITMPNNRGMVALARKLGFNVDIQLEEGIVGLTLNLAQREES
B5: 6-phosphofructokinase isozyme 1 (bacterial two-hybrid fusion) (enzyme, UniProt P0A796 1-320)
chain: MIKKIGVLTSGGDAPGMNAAIRGVVRSALTEGLEVMGIYDGYLGLYEDRMVQLDRYSVSDMINRGGTFLGSARFPEFRDENIRAVAIENLKKRGIDALVVIGGDGSYMGAMRLTEMGFPCIGLPGTIDNDIKGTDYTIGFFTALSTVVEAIDRLRDTSSSHQRISVVEVMGRYCGDLTLAAAIAGGCEFVVVPEVEFSREDLVNEIKAGIAKGKKHAIVAITEHMCDVDELAHFIEKETGRETRATVLGHIQRGGSPVPYDRILASRMGAYAIDLLLAGYGGRCVGIQNEQLVHHDIIDAIENMKRPFKGDWLDCAKKLY
B6: Putative acid-amine ligase (bacterial two-hybrid fusion) (protein, UniProt P0ADT5 1-386)
chain: MERVSITERPDWREKAHEYGFNFHTMYGEPYWCEDAYYKLTLAQVEKLEEVTAELHQMCLKVVEKVIASDELMTKFRIPKHTWSFVRQSWLTHQPSLYSRLDLAWDGTGEPKLLENNADTPTSLYEAAFFQWIWLEDQLNAGNLPEGSDQFNSLQEKLIDRFVELREQYGFQLLHLTCCRDTVEDRGTIQYLQDCATEAEIATEFLYIDDIGLGEKGQFTDLQDQVISNLFKLYPWEFMLREMFSTKLEDAGVRWLEPAWKSIISNKALLPLLWEMFPNHPNLLPAYFAEDDHPQMEKYVVKPIFSREGANVSIIENGKTIEAAEGPYGEEGMIVQQFHPLPKFGDSYMLIGSWLVNDQPAGIGIREDRALITQDMSRFYPHIFVE

The binders below were run against MinE (bacterial two-hybrid fusion) (E. coli) (UniProt P0A734) (assay: two-hybrid; bacterial two-hybrid (CyaA T25 and T18 fusions) in E. coli DHP1; cultures spotted on LB plates with 0.5 mM IPTG and X-Gal, 30 °C, colour developed for 18 h; every protein cloned in pT18 and in pT25 for cross-examination).

binding | Binder
binds | B1
no binding | B2
no binding | B3
binds | B4
binds | B5

Each binder was assayed against T1, MinC (bacterial two-hybrid fusion) (E. coli) in the same assay as above.

binding | Binder
no binding | B2
no binding | B3
binds | B4
binds | B6
binds | B5

These binders were tested against MinD (bacterial two-hybrid fusion) (E. coli) (UniProt P0AEZ3) in the same assay as above.

binding | Binder
binds | B1
no binding | B2
no binding | B3
binds | B4
binds | B5
